Results: PubChem BioAssay AID1794842 (National Center for Advancing Translational Sciences (NCATS), 2023)
Screen size: about 2,800 compounds; fewer than 10 were called active. The call rests on the fitted dose curve; in most records, active means well fitted curve in the direction sought with a large enough effect; inconclusive means small, poorly fitted or top-dose-only effect, or another doubt; inactive means no such curve, though single readings can be large or run the other way. This is one part of the list.

molecular target: Metallo-beta-lactamase type 2 (Klebsiella pneumoniae) (UniProt C7C422); experiment: qHTS to identify inhibitors of the New Delhi Metallo-beta-lactamase (NDM): Meropenem screen against the machine-based learning selections.; further: % of control where 0% means no effect; conditions: Purified NDM-1, meropenem hydrolysis, absorbance 300 nm; at 38.4 µM (top of the series) unless noted
Method in brief: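 NDM-1 (2 nM final) in 50 mM HEPES pH 7.0, 1 uM Zn2SO4, 0.01% Tween20 was preincubated with compounds for >30 min. Nitrocefin (16.7 uM final) was read at 485 nm after 15 min, and meropenem (50 uM final) at 300 nm after 30 min.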

UniProt C7C422, sequence (C7C422 whole entry, looked up): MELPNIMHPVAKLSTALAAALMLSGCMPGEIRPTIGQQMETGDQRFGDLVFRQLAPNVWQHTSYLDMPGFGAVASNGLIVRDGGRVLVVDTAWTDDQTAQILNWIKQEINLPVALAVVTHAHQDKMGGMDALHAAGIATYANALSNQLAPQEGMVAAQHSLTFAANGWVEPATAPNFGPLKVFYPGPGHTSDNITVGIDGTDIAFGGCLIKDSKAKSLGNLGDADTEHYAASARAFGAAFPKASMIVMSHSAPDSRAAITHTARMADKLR

Activity change, negative = inhibition, inactive:
CC(C)CC(=O)N1CCN(c2nnc3ccccn23)CC1 6.45%
CCCN1CC2(CCN(C(=O)c3ccc(C)nc3)CC2)CC1C(=O)O (stereo unspecified) 40.3%
O=C(Cc1ccccn1)N1CCC(N2CC3CCCN3C2=O)CC1 (stereo unspecified) 3.77% [at 57.5 µM]
Cc1cc(C)c(CNC(=O)c2nc(-c3cccnc3)cc3[nH]ccc23)c(=O)[nH]1 3.82% [at 57.5 µM]
CC(C)c1noc(-c2cccn3c(CNC(=O)c4cccc5[nH]ccc45)nnc23)n1 5.92%
COc1ccc(CNC(=O)C[C@@H]2CCNC[C@@H]2Cc2cc(COc3ccccc3)on2)cc1 -2.5%
COc1ccccc1CNC(=O)C[C@@H]1[C@H](O)CCC2[C@](C)(CO)[C@H](OC(=O)NC(C)C)CC[C@]21C (stereo partly specified) -0.427%
NC(=O)CCNC(=O)C1=C[C@@H](NC(=O)c2cccs2)[C@@H](O)[C@H](O)C1 7.02% [at 57.5 µM]
O=C(c1ccccc1-c1ncn[nH]1)N1CCn2nc(Cc3ccccc3)cc2C1 0.0583%
O=S(=O)(NC[C@H]1O[C@@H](CO)[C@@H](O)[C@H]1N1CCOCC1)c1ccccc1 41.4% [at 57.5 µM]
COc1ccc(-c2noc([C@@H]3C[C@@H](O)CN3Cc3ncc[nH]3)n2)cc1 -1.76% [at 57.5 µM]
OCc1cccc(-c2ccc3ncc(Nc4ccccc4F)n3n2)c1 23.6% [at 57.5 µM]
Cc1nc(C(=O)N2CCC(c3nnc(CN4CCCC4)n3C)CC2)cs1 -3.72%
O=c1c2nc(-c3ccc(O)c(F)c3)ccc2ncn1Cc1ccccn1 17.4% [at 57.5 µM]
CCc1nc(NCCc2cc(OC)cc(OC)c2)c2cnn(C)c2n1 3.47%
O=C(C[C@@H]1O[C@H](CNC(=O)c2ccccc2)[C@@H](O)[C@H]1O)NC1CC1 45% [at 57.5 µM]
F[C@@H]1CN(Cc2cccnc2)C[C@@H]1OCc1nc2ccc(C(F)(F)F)cc2[nH]1 -0.315% [at 57.5 µM]
c1cncc(Nc2cc3c(cn2)CN(Cc2ccc4[nH]ccc4c2)CCN3)c1 1.18% [at 57.5 µM]
O=C(NCCc1ccccc1)C1CC(=O)N(c2n[nH]c3cccc(F)c23)C1 (stereo unspecified) -0.342%
COCCNC(=O)C[C@@H]1C[C@H]2O[C@H](CNC3CCCCC3)[C@@H](O)[C@H]2O1 0.285% [at 57.5 µM]
Cc1ccccc1C(=O)N1CCCN(c2cc(-c3ccc(Cl)cc3)[nH]n2)CC1 0.174%
CC(C)c1nnc(C2CN(C(=O)c3ccc(F)c(F)c3)CC23CCOCC3)o1 (stereo unspecified) -0.968%
CN[C@@H](CC(C)C)C(=O)N[C@H]1C[C@@](O)(C(=O)N[C@H](Cc2c[nH]c3ccccc23)C(N)=O)C[C@@H](O)[C@@H]1O -0.384%
CC1(CNC(=O)c2ccc3c(c2)OCO3)CCOCC1 3.36%
O=C(OCc1ccccc1)N1CCC2(C1)C(=NC1CCCC1)NC(=O)N2c1cccnc1 (stereo unspecified) 1.78%
O=C(Cc1noc2ccccc12)N[C@@H]1COCC[C@@H]1OCc1ccccn1 -1.28%
Cc1nn(Cc2ccccc2)c(C)c1[C@@H]1C=C[C@@H](NC(=O)NC2CCCCC2)C1 13.4% [at 57.5 µM]
C=CCn1cc2c3c(cccc31)[C@H](CC(C)C)N[C@H](C(=O)N1CCOCC1)C2 2.17% [at 57.5 µM]
N#Cc1cccc(CN2CCC[C@H]2c2nc(-c3ccc(OC4CCCCC4)nc3)no2)c1 0.944% [at 57.5 µM]
Cc1ccsc1-c1[nH]nc2ncc(-c3ccc(CO)cc3)nc12 5.24% [at 57.5 µM]
COc1ccc(C(=O)N[C@H]2CO[C@H]3[C@@H]2OC[C@@H]3n2nnnc2-c2cccc(OC)c2)cc1 1.7%
Cc1ccc(-c2cc(O)c3c(c2)CNCCO3)cc1 0.171%
O[C@@H]1C[C@@H](c2nnc3n2CCN(Cc2ccccc2)C3)N(Cc2ccccc2)C1 4.37%
OC(c1cccc(C(F)(F)F)c1)c1nc(Nc2ccncc2)n[nH]1 (stereo unspecified) 3.37% [at 57.5 µM]
O=C(Cc1c[nH]c2ncc(-c3cccnc3)cc12)NCCc1ccccc1 19.1% [at 57.5 µM]
COc1cccc(Nc2cc3c(cn2)CN(Cc2ccncc2)CCN3)c1 7.92% [at 57.5 µM]
CC(C)C(=O)Nc1ccc([C@H]2OCC(=O)N(Cc3ccccc3)[C@@H]2CO)cc1 -1.78% [at 57.5 µM]
CCNc1ncc(C(=O)NC2CC(c3nnc(CO)n3CC)C2)cn1 (stereo unspecified) 4.73%
CC1(C(=O)NCCc2ccccn2)CCc2cnc(NCc3ccccc3)nc21 (stereo unspecified) 1.18% [at 57.5 µM]
CC(C)(O)CCc1ccc(C(=O)NCCSc2ccccn2)cc1 -0.658%
O=C(Cc1ccccc1Cl)N1CCC(Cc2nc(-c3ccc(F)cc3)no2)CC1 -1.26%
COc1ccc(C(=O)N2CCC(c3nn(-c4ccccc4)c(=O)[nH]3)CC2)cc1 -0.198%
CCn1ccc(C(=O)N2CC(c3nnc(-c4ccc(C)cc4)o3)C3(CCOCC3)C2)n1 (stereo unspecified) -0.487%
CC(C)NCC1(COc2ccc(C(F)(F)F)cn2)C[C@@H](O)[C@@H](O)C1 (stereo partly specified) 34.9% [at 57.5 µM]
Cc1nnnn1CC(=O)NCc1cccnc1N(C)CCc1ccccn1 1.5%
COCCNC(=O)c1ccc(OC2CCN(S(C)(=O)=O)CC2)c(Cl)c1 0.731%
C=CCN1CC2(CCC1=O)CCN(CC1CCCS(=O)(=O)C1)CC2 (stereo unspecified) -0.0853%
COc1ccc(C(=O)N2CC[C@@H](CC(=O)O)[C@@H](CCN3C[C@@H]4C[C@H](C3)c3cccc(=O)n3C4)C2)cc1 -0.0975%
NC(=O)c1cccc(-c2n[nH]c3c2CC(=O)N(CC2CCOCC2)C3)c1 5.77% [at 57.5 µM]
COc1ccccc1-c1cnc(Nc2cccc(N[S+](C)(=O)[O-])c2)c2c1CCO2 5.26% [at 57.5 µM]
COc1ccc(NC(=O)O[C@@H]2CC[C@]3(C)C(CC[C@@H](O)[C@H]3CC(=O)NCc3ccc4c(c3)OCO4)[C@]2(C)CO)cc1 (stereo partly specified) 3.41%
O=c1cc(-c2ccccn2)oc2c(NCc3ccccc3)nccc12 11.4% [at 57.5 µM]
OCC1(Cc2ccc(F)cc2F)CCCN(c2cnc3ccccc3n2)C1 (stereo unspecified) 0.21%
C[C@H]1[C@@H]2[C@@H](O)[C@H]([C@H](C)C(=O)N3CCCC3)CC[C@@]2(C)CC[C@@H]1NC(=O)CC(C)(C)C 0.93% [at 57.5 µM]
CCOC(=O)C[C@@H]1C[C@@H](C(C)C)[C@H](CNC(=O)c2ccc(C#N)cc2)C=C1C 0.39% [at 57.5 µM]
OC[C@]12CCCN[C@@H]1CCN(Cc1cccc(-c3ccccn3)c1)C2 1.81%
CN1[C@@H](CCC(=O)N2CCN(c3ccccc3)CC2)CNC(=O)[C@@H]2[C@H]1CCN2Cc1cccc(Cl)c1 0.159%
COc1cccc(CN2C[C@@H]3C(C(=O)O)[C@@H]3C2)c1OCCn1ccnc1 (stereo partly specified) 37.8%
C[C@@H](NC(=O)Cc1ccccc1)c1onc(-c2ccc(Cl)cc2)c1C(=O)O -1.91% [at 57.5 µM]
CC(C)c1noc(CN(C)C(=O)CC2C(=O)NCCN2Cc2ccoc2)n1 (stereo unspecified) 0.77%
CC(C)NC(=O)CCc1cc2n(n1)CCN(Cc1cc(=O)[nH]c(=O)[nH]1)C2 45.7%
CCC(=O)N(C1CCOCC1)C1CCN(S(=O)(=O)c2ccc(C)cc2C)CC1 0.609%
CC[C@H]1CN(C(=O)C(C)(C)C)CC[C@H]1CC(=O)NCc1cccnc1 -1.05% [at 57.5 µM]
Fc1ccc(CN2CC[C@H](c3nc4cc(Cl)ccc4o3)C2)cc1F -2.33% [at 57.5 µM]
O=C(Nc1cccs1)O[C@H]1COCCN(c2nc3ccccc3o2)C1 1.17% [at 57.5 µM]
CCN(Cc1nc(C)no1)C(=O)c1cc(COc2ccccc2F)[nH]n1 -0.0289%
Cc1noc(C)c1CCC(=O)N1CCN(Cc2ccccc2)CC(O)C1 (stereo unspecified) 3.03%
COCCNS(=O)(=O)c1cc(C(=O)O)cc(-c2ccc(OC)c(F)c2)c1 7.31%
COc1ccc(Cl)cc1-c1ccc2c(c1)C(=O)N1CCN(C(=O)c3ccc(N(C)C)cc3)C[C@@H]1C(=O)N2 2.11%
CN(Cc1ccccc1)Cc1cc(CC2(NCc3cccs3)COC2)no1 0.865% [at 57.5 µM]
CC1CCC(NC(=O)C2CCN(C(=O)c3ncn4c3COC(c3ccc(Cl)cc3)C4)CC2)CC1 (stereo unspecified) 1.45%
COCCN1CCCC2(CCN(C(=O)c3ccccc3)C2)C1 (stereo unspecified) 1.01%
Cc1nn(CCC#N)c(C)c1[C@@H]1C=C[C@@H](NC(=O)Nc2ccc(Cl)cc2)C1 0.866% [at 57.5 µM]
CN1CCN(c2ccc(C(=O)N[C@H](c3ccccn3)C3CC(O)C3)cc2)CC1 (stereo partly specified) 4.37%
CCO[C@H]1CN(C(=O)c2cccnc2SCCc2ccccc2)C[C@@H]1O 2.44%
CCCNC(=O)NC[C@H]1O[C@@H]2C[C@@H](CC(=O)N3CCC(F)(F)C3)O[C@@H]2[C@@H]1O -1.26% [at 57.5 µM]
